Measurements from patent CN117756933A (INST MILITARY MEDICINE ACADEMY MILITARY SCIENCES PLA, dated 2024).

B1: 重链抗体FW3-R1-Fc (Fc fusion)
heavy: EVQLVESGGGLVQPGGSLRLSCAASGFIFSDYGMSWVRQAPGKDLEWVSGISNLGSYTYYADSVKGRFTISRDNAKNTLSLQMNSLRAEDTALYYCTRGGTLGTMTYPKYAGQGTLVTISSAS[human IgG1 Fc with changes left out]
B2: 重链抗体FW3-Fc (Fc fusion)
heavy: EVQLVESGGGLVQPGGSLRLSCAASGFIFSDYGMSWVRQAPGKDLEWVSGISNLGSYTYYADSVKGRFTISRDNAKNTLSLQMNSLKSEDTALYYCTRGGTLGTMTYPKYAGQGTQVTISSAS[human IgG1 Fc with changes left out]
B3: 重链抗体FW3-R3-Fc (Fc fusion)
heavy: EVQLVESGGGLVQPGGSLRLSCAASGFIFSDYGMSWVRQAPGKDLEWVSGISNLGSYTYYADSVKGRFTISRDNAKNTLSLQMNSLRAEDTALYYCTRGGTLGTMTYPKYAGQGTLVTVSSAS[human IgG1 Fc with changes left out]

The binders below were run against 鼠疫菌F1重组蛋白 (Yersinia pestis).

Binder | Kd [nM]
B1 | 3.42
B2 | 4.43
B3 | 4.36
